Results are given in words; binding and its absence hold for the method and conditions named. Binding seen in cells or lysates may run through a third protein. Some results given as binding are weak or reduced against the parent protein; the word gives no strength. Tags and fused reporters may be left off the sequences shown.
B1: PNPLA3 (patatin-like phospholipase domain containing 3), wild type, no tag named (enzyme, UniProt Q9NST1 1-481)
chain: MYDAERGWSLSFAGCGFLGFYHVGATRCLSEHAPHLLRDARMLFGASAGALHCVGVLSGIPLEQTLQVLSDLVRKARSRNIGIFHPSFNLSKFLRQGLCKCLPANVHQLISGKIGISLTRVSDGENVLVSDFRSKDEVVDALVCSCFIPFYSGLIPPSFRGVRYVDGGVSDNVPFIDAKTTITVSPFYGEYDICPKVKSTNFLHVDITKLSLRLCTGNLYLLSRAFVPPDLKVLGEICLRGYLDAFRFLEEKGICNRPQPGLKSSSEGMDPEVAMPSWANMSLDSSPESAALAVRLEGDELLDHLRLSILPWDESILDTLSPRLATALSEEMKDKGGYMSKICNLLPIRIMSYVMLPCTLPVESAIAIVQRLVTWLPDMPDDVLWLQWVTSQVFTRVLMCLLPASRSQMPVSSQQASPCTPEQDWPCWTPCSPKGCPAETKAEATPRSILRSSLNFFLGNKVPAGAEGLSTFPSFSLEKSL
B2: adipose triglyceride lipase (ATGL), no tag named, Q96AD5 1-504 (enzyme)
chain: MFPREKTWNISFAGCGFLGVYYVGVASCLREHAPFLVANATHIYGASAGALTATALVTGVCLGEAGAKFIEVSKEARKRFLGPLHPSFNLVKIIRSFLLKVLPADSHEHASGRLGISLTRVSDGENVIISHFNSKDELIQANVCSGFIPVYCGLIPPSLQGVRYVDGGISDNLPLYELKNTITVSPFSGESDICPQDSSTNIHELRVTNTSIQFNLRNLYRLSKALFPPEPLVLREMCKQGYRDGLRFLQRNGLLNRPNPLLALPPARPHGPEDKDQAVESAQAEDYSQLPGEDHILEHLPARLNEALLEACVEPTDLLTTLSNMLPVRLATAMMVPYTLPLESALSFTIRLLEWLPDVPEDIRWMKEQTGSICQYLVMRAKRKLGRHLPSRLPEQVELRRVQSLPSVPLSCAAYREALPGWMRNNLSLGDALAKWEECQRQLLLGLFCTNVAFPPEALRMRAPADPAPAPADPASPQHQLAGPAPLLSTPAPEARPVIGALGL
B3: PNPLA3 (patatin-like phospholipase domain containing 3), wild type, no tag named, Q9NST1 1-481 (enzyme)
chain: B1 chain

Legend:
[1] = biological target: T1, FLAG-tagged perilipin 2 (human) (UniProt Q99541); assay: co-IP; Huh7 cells transfected with PNPLA3 alone or together with FLAG-tagged PLIN1, 2, 3, 5 or ABHD5; precipitation by the FLAG tag, immunoblot of PNPLA3
T1 sequence: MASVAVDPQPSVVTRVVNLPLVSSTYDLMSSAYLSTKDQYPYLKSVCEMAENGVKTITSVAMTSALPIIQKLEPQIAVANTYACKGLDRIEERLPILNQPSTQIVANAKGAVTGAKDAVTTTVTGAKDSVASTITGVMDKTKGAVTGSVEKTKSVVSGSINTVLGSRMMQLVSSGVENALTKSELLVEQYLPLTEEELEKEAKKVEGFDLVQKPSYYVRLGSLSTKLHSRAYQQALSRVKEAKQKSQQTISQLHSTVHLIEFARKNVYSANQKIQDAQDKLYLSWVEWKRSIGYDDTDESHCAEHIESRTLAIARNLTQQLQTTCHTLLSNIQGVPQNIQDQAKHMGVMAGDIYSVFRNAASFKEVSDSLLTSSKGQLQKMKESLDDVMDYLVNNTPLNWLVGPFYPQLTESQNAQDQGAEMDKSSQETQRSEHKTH

[2] = biological target: T2, FLAG-tagged perilipin 3 (human) (UniProt O60664); assay: as above
T2 sequence: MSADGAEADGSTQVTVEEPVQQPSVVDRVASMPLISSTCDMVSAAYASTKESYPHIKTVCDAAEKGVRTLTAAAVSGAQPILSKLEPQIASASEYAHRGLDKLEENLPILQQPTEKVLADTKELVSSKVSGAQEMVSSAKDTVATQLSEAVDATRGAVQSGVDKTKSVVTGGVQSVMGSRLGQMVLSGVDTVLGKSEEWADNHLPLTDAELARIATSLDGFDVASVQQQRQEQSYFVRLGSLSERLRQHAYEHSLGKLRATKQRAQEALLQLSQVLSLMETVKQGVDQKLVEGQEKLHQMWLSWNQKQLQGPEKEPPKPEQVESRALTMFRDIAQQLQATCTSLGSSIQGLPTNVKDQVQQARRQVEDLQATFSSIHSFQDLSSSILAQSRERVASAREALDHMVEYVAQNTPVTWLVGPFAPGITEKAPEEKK

[3] = biological target: T3, FLAG-tagged perilipin 1 (human) (UniProt O60240); assay: as above
T3 sequence: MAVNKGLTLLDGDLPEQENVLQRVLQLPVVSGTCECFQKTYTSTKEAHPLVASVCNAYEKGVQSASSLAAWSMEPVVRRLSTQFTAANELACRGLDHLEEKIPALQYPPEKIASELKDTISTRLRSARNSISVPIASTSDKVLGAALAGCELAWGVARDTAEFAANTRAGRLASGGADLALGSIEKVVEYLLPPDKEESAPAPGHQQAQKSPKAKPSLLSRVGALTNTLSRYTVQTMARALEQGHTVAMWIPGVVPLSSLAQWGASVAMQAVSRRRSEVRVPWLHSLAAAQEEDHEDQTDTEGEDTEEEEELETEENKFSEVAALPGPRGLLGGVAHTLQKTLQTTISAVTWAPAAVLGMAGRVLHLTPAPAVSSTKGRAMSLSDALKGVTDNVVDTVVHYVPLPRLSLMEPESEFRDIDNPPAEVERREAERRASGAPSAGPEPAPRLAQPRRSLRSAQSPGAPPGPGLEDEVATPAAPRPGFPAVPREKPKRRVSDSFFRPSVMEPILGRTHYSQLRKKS

[4] = biological target: T1, FLAG-tagged perilipin 2 (human); assay: co-IP; HEK293T cells transfected with PNPLA3, PNPLA3(I148M) or ATGL alone or together with FLAG-tagged PLIN1, 2, 3, 5 or ABHD5; precipitation by the FLAG tag, immunoblot
[5] = biological target: T2, FLAG-tagged perilipin 3 (human); assay: as above
[6] = biological target: T3, FLAG-tagged perilipin 1 (human); assay: as above
[7] = biological target: T4, FLAG-tagged ATGL and HA-tagged ATGL (two differently tagged copies) (UniProt Q96AD5); assay: co-IP; HEK293T cells transfected with FLAG-tagged ATGL alone and together with HA-tagged ATGL in the presence or absence of PNPLA3; precipitation by the FLAG tag, immunoblot of HA, FLAG and PNPLA3
T4 sequence: B2 chain

[8] = biological target: T5, FLAG-tagged perilipin 1 (human), O60240; assay: co-IP; HEK293T cells transfected with PNPLA3, PNPLA3(I148M) or ATGL alone or together with FLAG-tagged PLIN1, 2, 3, 5 or ABHD5; precipitation by the FLAG tag, immunoblot; conditions: remark: other sources report otherwise
T5 chain: T3 sequence

[9] = biological target: T6, FLAG-tagged ABHD5, Q8WTS1; assay: as above; conditions: remark: other sources report otherwise
T6 chain: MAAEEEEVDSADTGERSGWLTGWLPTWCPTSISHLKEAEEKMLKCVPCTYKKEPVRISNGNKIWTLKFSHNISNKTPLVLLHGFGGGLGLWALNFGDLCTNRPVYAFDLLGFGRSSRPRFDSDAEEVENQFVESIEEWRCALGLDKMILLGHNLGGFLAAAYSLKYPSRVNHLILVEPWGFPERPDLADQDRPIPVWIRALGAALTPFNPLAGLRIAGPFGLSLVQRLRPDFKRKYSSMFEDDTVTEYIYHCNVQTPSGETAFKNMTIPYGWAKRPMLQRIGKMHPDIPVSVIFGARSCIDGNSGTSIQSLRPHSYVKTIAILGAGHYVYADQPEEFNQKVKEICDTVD

[10] = biological target: T7, FLAG-tagged perilipin 2 (human), Q99541; assay: as above; conditions: remark: other sources report otherwise
T7 chain: T1 sequence

[11] = biological target: T6, FLAG-tagged ABHD5, Q8WTS1; assay: co-IP; Huh7 cells transfected with PNPLA3 alone or together with FLAG-tagged PLIN1, 2, 3, 5 or ABHD5; precipitation by the FLAG tag, immunoblot of PNPLA3; conditions: remark: other sources report otherwise

Row | binding [1] | binding [2] | binding [3] | binding [4] | binding [5] | binding [6] | binding [7] | binding [8] | binding [9] | binding [10] | binding [11] | Binder
1 | no binding | no binding | no binding | no binding | no binding | no binding | binds | – | – | – | – | B1
2 | – | – | – | – | – | – | – | no binding | binds | no binding | – | B2
3 | – | – | – | – | – | – | – | – | no binding | – | no binding | B3

Reference: paper PMC9818421
